From article PMC12280212
The source holds more than one record for some entries. The other results are left out here. An entry can have further records. Some entries list several cross-links; each record is another pair of residues.

Tests used:
Assay in all cases: cross-linking mass spectrometry
Conditions in all cases: DSSO, in cells
[1] = target: CANX (UniProt P27824)
[2] = target: GANAB (UniProt Q14697)
[3] = target: CD44 (UniProt P16070)
[4] = target: NT5E (UniProt P21589)
[5] = target: HSP90B1 (UniProt P14625)
[6] = target: PDIA4 (UniProt P13667)
[7] = target: HSPA5 (UniProt P11021)
[8] = target: HSPB1 (UniProt P04792)
[9] = target: LGALS1 (UniProt P09382)
[10] = target: NUCB1 (UniProt Q02818)
[11] = target: TMEM109 (UniProt Q9BVC6)
[12] = target: YWHAG (UniProt P61981)
[13] = target: YWHAZ (UniProt P63104)

Chain of UniProt P14625 (P14625 whole entry): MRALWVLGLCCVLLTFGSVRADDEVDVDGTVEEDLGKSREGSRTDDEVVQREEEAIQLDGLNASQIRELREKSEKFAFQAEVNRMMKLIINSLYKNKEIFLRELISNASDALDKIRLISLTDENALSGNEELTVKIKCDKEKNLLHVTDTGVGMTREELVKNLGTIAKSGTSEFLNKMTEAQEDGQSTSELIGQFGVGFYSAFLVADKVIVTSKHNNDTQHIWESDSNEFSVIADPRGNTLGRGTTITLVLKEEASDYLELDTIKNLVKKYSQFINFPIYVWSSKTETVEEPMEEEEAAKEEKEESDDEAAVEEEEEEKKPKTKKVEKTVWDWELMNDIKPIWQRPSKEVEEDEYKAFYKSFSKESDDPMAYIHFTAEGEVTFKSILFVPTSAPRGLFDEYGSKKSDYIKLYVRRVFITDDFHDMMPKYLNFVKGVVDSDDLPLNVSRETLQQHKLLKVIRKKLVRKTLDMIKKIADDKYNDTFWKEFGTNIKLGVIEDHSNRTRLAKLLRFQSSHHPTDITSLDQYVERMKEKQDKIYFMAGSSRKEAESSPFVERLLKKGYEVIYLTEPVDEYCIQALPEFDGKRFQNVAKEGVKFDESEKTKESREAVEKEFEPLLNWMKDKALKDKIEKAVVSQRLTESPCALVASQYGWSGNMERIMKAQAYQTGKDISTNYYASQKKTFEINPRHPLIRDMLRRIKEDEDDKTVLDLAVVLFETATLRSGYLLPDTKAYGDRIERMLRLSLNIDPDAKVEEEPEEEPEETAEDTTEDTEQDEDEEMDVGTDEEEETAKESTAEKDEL
Chain of UniProt P16070 (P16070 whole entry): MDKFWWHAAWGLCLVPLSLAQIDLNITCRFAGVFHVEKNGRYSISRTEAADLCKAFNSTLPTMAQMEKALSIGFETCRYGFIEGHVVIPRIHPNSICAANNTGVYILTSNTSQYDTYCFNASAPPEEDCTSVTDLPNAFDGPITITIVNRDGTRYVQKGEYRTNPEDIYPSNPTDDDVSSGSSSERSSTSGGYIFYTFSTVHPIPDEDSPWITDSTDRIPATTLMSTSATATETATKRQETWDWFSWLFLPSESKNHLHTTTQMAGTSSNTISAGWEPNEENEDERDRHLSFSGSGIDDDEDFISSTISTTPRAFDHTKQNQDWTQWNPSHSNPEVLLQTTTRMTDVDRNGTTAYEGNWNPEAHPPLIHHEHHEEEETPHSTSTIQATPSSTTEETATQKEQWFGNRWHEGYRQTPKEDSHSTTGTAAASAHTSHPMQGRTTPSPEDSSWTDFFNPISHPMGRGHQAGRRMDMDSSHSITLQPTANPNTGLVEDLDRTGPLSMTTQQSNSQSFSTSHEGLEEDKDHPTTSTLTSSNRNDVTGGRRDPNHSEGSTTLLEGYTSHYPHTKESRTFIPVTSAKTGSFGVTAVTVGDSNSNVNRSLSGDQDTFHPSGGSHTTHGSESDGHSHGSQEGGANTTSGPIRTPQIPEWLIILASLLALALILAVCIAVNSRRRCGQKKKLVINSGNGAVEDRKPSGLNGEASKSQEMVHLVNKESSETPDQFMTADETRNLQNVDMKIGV
Chain of UniProt Q14697 (Q14697 whole entry): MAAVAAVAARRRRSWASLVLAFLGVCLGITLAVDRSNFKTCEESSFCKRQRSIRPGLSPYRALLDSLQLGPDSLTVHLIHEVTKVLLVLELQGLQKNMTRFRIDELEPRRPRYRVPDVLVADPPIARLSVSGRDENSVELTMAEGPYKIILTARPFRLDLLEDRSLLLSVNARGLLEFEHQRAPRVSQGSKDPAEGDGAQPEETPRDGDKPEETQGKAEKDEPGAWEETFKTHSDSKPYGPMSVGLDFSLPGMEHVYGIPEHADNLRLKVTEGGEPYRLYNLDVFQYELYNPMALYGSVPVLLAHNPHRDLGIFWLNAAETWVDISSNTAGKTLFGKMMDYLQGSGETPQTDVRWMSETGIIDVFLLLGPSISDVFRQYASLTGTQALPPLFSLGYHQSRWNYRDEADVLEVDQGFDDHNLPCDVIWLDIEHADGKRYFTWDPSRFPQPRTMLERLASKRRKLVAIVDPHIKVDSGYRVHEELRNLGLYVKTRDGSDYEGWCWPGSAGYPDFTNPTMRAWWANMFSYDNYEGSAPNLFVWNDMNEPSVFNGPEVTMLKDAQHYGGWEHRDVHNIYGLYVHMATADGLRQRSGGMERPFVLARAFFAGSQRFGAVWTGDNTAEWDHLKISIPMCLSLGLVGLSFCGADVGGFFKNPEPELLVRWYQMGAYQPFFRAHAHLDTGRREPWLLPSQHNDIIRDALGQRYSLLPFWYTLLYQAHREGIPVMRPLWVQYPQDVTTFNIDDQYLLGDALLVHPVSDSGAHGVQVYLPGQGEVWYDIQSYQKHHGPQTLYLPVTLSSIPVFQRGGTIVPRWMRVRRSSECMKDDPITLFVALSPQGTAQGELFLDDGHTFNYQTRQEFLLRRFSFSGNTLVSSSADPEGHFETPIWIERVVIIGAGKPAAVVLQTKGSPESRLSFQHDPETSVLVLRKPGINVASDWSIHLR
Chain of ANXA6 (P08133 whole entry): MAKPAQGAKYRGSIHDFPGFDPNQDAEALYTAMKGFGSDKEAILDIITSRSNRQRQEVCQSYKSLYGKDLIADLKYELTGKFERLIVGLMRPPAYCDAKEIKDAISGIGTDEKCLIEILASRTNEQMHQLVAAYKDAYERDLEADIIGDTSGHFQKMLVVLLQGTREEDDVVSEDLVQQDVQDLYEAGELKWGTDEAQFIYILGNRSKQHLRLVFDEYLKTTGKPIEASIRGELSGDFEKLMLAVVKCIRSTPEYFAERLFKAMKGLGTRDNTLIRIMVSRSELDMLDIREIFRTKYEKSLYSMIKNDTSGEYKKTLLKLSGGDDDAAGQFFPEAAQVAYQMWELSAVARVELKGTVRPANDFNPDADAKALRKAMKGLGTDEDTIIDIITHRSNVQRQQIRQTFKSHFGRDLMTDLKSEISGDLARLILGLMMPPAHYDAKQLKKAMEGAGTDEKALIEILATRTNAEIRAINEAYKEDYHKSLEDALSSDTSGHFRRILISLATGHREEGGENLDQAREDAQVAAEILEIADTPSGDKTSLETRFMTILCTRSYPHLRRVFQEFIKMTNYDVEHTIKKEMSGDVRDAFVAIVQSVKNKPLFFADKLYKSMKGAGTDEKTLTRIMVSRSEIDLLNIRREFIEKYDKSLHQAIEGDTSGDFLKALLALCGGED
Chain of UniProt Q9BVC6 (Q9BVC6 whole entry): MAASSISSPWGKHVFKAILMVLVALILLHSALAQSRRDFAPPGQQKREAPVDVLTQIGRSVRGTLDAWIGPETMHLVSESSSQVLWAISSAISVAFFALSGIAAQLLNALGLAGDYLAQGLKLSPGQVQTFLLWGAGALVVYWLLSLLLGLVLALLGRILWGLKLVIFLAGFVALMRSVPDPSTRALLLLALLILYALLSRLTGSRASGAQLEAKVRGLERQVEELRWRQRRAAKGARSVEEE
Chain of CALU (O43852 whole entry): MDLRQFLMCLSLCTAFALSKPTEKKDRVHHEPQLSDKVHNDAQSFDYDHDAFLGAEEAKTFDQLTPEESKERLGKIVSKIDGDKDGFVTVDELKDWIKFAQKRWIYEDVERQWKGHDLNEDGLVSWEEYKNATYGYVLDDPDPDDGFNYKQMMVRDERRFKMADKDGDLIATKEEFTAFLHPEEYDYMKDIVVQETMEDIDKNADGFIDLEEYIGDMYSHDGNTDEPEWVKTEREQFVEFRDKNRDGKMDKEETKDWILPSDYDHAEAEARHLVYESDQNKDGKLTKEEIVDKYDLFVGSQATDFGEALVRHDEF

PPIB, P23284
cross-linked residues [1]: K84 - K90 and K116 - K90 and K116 - K170 and K165 - K90 and K186 - K210 | cross-linked residues [2]: K116 - K48 and K116 - K191

LGALS1, P09382
cross-linked residues [3]: K29 - K158 and K108 - K158 | cross-linked residues [4]: K29 - K67 and K108 - K67

ANXA6, P08133
cross-linked residues [3]: K63 - K681 and K63 - K695 and K354 - K739 and K600 - K715

CALR, P27797
cross-linked residues [2]: K153 - K908 and K360 - K908

HSPA5, P11021
Chain of HSPA5, P11021 (P11021 whole entry): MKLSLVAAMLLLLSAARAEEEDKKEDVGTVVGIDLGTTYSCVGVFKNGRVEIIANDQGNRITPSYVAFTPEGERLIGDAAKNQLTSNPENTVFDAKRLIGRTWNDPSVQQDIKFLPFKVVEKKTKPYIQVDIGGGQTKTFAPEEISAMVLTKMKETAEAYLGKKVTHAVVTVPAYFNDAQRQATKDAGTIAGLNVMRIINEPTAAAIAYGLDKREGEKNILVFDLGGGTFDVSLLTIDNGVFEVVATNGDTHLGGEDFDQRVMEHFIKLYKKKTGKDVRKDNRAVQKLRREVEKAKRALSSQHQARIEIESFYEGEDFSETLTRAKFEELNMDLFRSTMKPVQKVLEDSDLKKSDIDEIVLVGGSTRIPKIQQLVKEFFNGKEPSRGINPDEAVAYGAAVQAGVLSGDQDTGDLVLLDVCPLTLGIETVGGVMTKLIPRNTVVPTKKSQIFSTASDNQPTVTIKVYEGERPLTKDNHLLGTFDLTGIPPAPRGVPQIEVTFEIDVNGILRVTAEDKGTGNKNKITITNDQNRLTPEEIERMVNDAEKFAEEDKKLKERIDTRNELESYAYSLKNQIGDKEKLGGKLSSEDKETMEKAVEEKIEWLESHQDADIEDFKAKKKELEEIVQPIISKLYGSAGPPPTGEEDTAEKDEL
cross-linked residues [5]: K164 - K161 and K164 - K168 and K213 - K547 and K340 - K348 and K344 - K348 and K370 - K597 and K523 - K671 and K547 - K537 and K547 - K597 and K547 - K671 and K573 - K633 and K579 - K537 and K579 - K597 and K579 - K633 and K579 - K671 and K579 - K682 and K621 - K633 and K621 - K671 | cross-linked residues [6]: K340 - K163 and K523 - K245

PDIA4, P13667
cross-linked residues [5]: K103 - K597 and K103 - K633 and K245 - K547 and K245 - K597 and K294 - K142 and K366 - K161 and K366 - K348 and K437 - K348 and K509 - K348 and K570 - K603 and K582 - K597

CALU, O43852
cross-linked residues [7]: K281 - K340 and K281 - K352 and K281 - K370 and K281 - K523 and K281 - K579

P4HB, P07237
cross-linked residues [7]: K31 - K370 and K71 - K213

CRYAB, P02511
cross-linked residues [8]: K150 - K114 and K150 - K198

CD63, P08962
cross-linked residues [9]: K162 - K29 and K162 - K108

TMED10, P49755
cross-linked residues [10]: K140 - K280 and K145 - K71

CANX, P27824
Chain of CANX, P27824 (P27824 whole entry): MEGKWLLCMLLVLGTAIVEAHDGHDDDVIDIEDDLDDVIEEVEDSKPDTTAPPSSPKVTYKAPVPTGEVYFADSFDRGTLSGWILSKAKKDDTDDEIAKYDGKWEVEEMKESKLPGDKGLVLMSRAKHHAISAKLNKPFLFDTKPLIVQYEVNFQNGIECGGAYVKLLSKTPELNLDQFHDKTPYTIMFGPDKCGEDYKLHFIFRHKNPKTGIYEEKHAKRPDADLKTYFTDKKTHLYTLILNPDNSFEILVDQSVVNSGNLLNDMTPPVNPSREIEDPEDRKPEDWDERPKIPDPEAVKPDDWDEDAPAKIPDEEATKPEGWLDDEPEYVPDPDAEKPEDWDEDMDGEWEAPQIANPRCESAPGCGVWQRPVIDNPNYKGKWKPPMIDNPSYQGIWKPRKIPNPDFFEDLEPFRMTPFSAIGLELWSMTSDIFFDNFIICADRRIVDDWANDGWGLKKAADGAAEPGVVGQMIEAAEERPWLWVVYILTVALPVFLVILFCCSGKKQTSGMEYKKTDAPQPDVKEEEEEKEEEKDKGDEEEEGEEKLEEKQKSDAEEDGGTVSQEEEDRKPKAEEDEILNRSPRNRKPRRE
cross-linked residues [11]: K233 - K46 and K507 - K215 and K516 - K215 and K525 - K235 and K537 - K235

YWHAQ, P27348
cross-linked residues [12]: K74 - M1 and K85 - K10

YWHAG, P61981
cross-linked residues [13]: M1 - K74 and K10 - K74
